Assay results taken from PubChem BioAssay AID2546 (National Center for Advancing Translational Sciences (NCATS), 2010).
Screen size: about 310,000 compounds; about 11,000 (3.5%) were called active. Inconclusive means that the source gave no clear call. Such entries were picked first, then a sample of the others. Calls follow the shape of the dose curve; as a rule, active = well fitted inhibition curve with a large enough effect; inconclusive = small, poorly fitted or top-dose-only effect, or effect the other way; inactive = flat fitted curve, though single readings scatter. Potencies of inconclusive entries are left out as doubtful fits.

Test: VP16 counterscreen qHTS for inhibitors of ROR gamma transcriptional activity;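 also: Gal4-VP16 expression switched on by copper sulfate through the metallothionein promoter; nearly all actives have a fitted effect of over 50% in size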
Conditions: Drosophila S2 Gal4-VP16 UAS-luciferase, luminescence, 20 h; activity, negative = inhibition: at 53.6 µM (top of the series)
% is scaled to controls: 0 for no effect and ±100 for the full control effect; potency is read from the fitted curve at half-maximal effect; tags tell the direction and shape of the fitted curve.

Row | SMILES | Potency | activity, negative = inhibition
1 | Cc1ccc(/C=N/NC(=O)c2ccc(-c3ccccc3)cc2)o1 | inconclusive [inhibitor, single point] | 
2 | CCOC(=O)N1CCN(C(=S)Nc2ccccc2C)CC1 |  | inactive: -5.06%
3 | Cn1c(=O)oc2cc(S(=O)(=O)Nc3cccc(C(=O)O)c3)ccc21 |  | inactive: 1.71%
4 | O=C(CSc1nc(O)c(C2CCCCC2)c(=O)[nH]1)Nc1ccccc1Cl |  | inactive: -0.433%
5 | CNc1ncc(C(=O)c2ccc(Cl)c(Cl)c2)s1 | inconclusive [inhibitor, full curve] | 
6 | O=C(/C=C/c1ccc(OC(F)F)cc1)Nc1cccc(S(=O)(=O)N2CCOCC2)c1 | inconclusive [inhibitor, single point] | 
7 | CS(=O)(=O)Nc1cccc(-c2cncnc2-n2ccnc2)c1 |  | inactive: -7.25%
8 | CCn1c(COc2ccc3c(c2)OCO3)nnc1SCC(=O)c1ccccc1 | active: 12.6 µM | 
9 | O=C1CNC(=S)N1c1nc2ccccc2s1 | active: 5.62 µM | 
10 | COc1ccc(OC)c2c1sc(=NC(=O)C(C)C)n2C | active: 20 µM | 
11 | c1ccc(CNc2nc(-c3cccs3)nc3ccccc23)cc1 | inconclusive [inhibitor, single point] | 
12 | Clc1ccc(Cn2c(/C=C/c3ccco3)nc3ccccc32)cc1 | inconclusive [inhibitor, single point] | 
13 | COc1ccc(NC(=S)NC(=O)Cc2ccccc2)c(OC)c1 | active: 11.2 µM | 
14 | CCOc1ccccc1NC(=S)NC(=O)C1CCCCC1 | active: 6.31 µM | 
15 | CC(/C=N/NC(=O)c1cccs1)=C\c1ccco1 | inconclusive [activator, full curve] | 
16 | CSc1ccccc1NC(=O)COc1ccc(Cl)cc1 | inconclusive [activator, single point] | 
17 | O=C(NC1CCCCC1)NC1CCCCC1 | inconclusive [inhibitor, full curve, poor fit] | 
18 | Cc1c(N)cc(C(=O)N2CCOCC2)cc1[N+](=O)[O-] | inconclusive [activator, single point] | 
19 | O=C(Nc1sc2c(c1-c1nc3ccccc3[nH]1)CCCC2)C1CC1 | inconclusive [inhibitor, partial curve, poor fit] | 
20 | CN(C(=O)COC(=O)CNC(=O)c1ccc2ccccc2c1)c1c(N)n(Cc2ccccc2)c(=O)[nH]c1=O |  | inactive: 10.8%
21 | CC1CC=CC2C1C(=O)N(Cc1ccccc1)C2c1ccc(-c2ccoc2)cc1F (stereo unspecified) | inconclusive [inhibitor, single point] | 
22 | C(=N\Nc1ccc2ccccc2n1)/c1ccc2c(c1)OCO2 | active: 14.1 µM | 
23 | O=C(N/N=C/c1ccc(OC(F)F)cc1)c1ccc(Br)cc1 | inconclusive [inhibitor, single point] | 
24 | Cc1cccc(NC(=S)Nc2ccccn2)c1 | active: 6.31 µM | 
25 | CCCn1c(CN2CCN(c3cccc(Cl)c3)CC2)nc2c1c(=O)n(C)c(=O)n2C | inconclusive [inhibitor, single point] | 
26 | COc1ccc(-c2cc(C(F)(F)F)nc(S(=O)(=O)CCCC(=O)Nc3cccnc3Cl)n2)cc1OC | inconclusive [inhibitor, single point] | 

Row | SMILES | Potency | activity, negative = inhibition
27 | COc1ccc(C(C)C(=O)c2ccc(O)cc2O)cc1 (stereo unspecified) | inconclusive [activator, single point] | 
28 | CCn1nnc2cc(C(=O)NCCc3ccccc3F)ccc21 | active: 11.2 µM | 
29 | Cc1ccc(C(CC(=O)O)Nc2nc(N3CCCCC3)nc(N3CCCCC3)n2)cc1 (stereo unspecified) | inconclusive [inhibitor, partial curve, poor fit] | 
30 | COc1ccc(C2SCC(=O)N2CCc2ccc(OC)c(OC)c2)cc1 (stereo unspecified) | active: 2.82 µM | 
31 | CCN1CCN(C(=O)c2ccc3c(c2)S(=O)(=O)c2ccccc2C3=O)CC1 |  | inactive: -10.1%
32 | Oc1ccc(CNc2ccccc2F)c2cccnc12 | inconclusive [inhibitor, single point] | 
33 | Cc1ccc2nc(SCc3nc4c(cnn4-c4ccccc4)c(=O)[nH]3)[nH]c2c1 | inconclusive [inhibitor, single point] | 
34 | CCOC(=O)c1cnc(-n2nc(C)cc2C)nc1NNc1cc(-c2ccccc2)nc(C)n1 | active: 0.1 µM | 
35 | O=C(CSc1ccccn1)N/N=C/c1cc([N+](=O)[O-])ccc1O | active: 7.08 µM | 
36 | COc1ccc(-n2c(=S)[nH]c3cc(C(=O)Nc4ccc(C)c(F)c4)ccc3c2=O)c(OC)c1 | active: 12.6 µM | 
37 | COc1ccc(C(=O)NNC(=O)CSc2ccccc2)cc1 |  | inactive: -9.89%
38 | CC(=O)Nc1ccc(Oc2nc(-c3ccccn3)nc3ccccc23)cc1 | inconclusive [inhibitor, single point] | 
39 | CN(C)CCNC(=O)c1cc2c(=O)n(C)c3ccccc3c2n1C |  | inactive: 1.74%
40 | CCOc1cc(/C=N/Nc2nc3ccccc3[nH]2)cc(Br)c1OCC(=O)N(C)C |  | inactive: -0.872%
41 | CC(C)Cc1ccc(C(C)C(=O)OCC(=O)c2c[nH]c3ccccc23)cc1 (stereo unspecified) | active: 17.8 µM | 
42 | Cc1nc2cnc(N3CCOCC3)nc2n(C[C@H]2CCCO2)c1=O |  | inactive: -8.67%
43 | COc1ccc(NC(=O)CN(c2cc(C)cc(C)c2)S(=O)(=O)c2c(C)noc2C)cc1OC |  | inactive: 4.47%
44 | Brc1cccc(Cn2c(-c3cncs3)nc3ccccc32)c1 | active: 8.91 µM | 
45 | N#Cc1cc2sc3nnc(-c4ccncc4)n3c2cc1C#N | inconclusive [inhibitor, partial curve] | 
46 | CCOC(=O)c1c(-c2ccccc2)csc1NC(=S)NC | active: 1 µM | 
47 | CC1=CN2C(=N)/C(=C\c3cn(CCCOc4ccccc4)c4ccccc34)C(=O)N=C2S1 | active: 5.01 µM | 
48 | CCOC(=O)Cc1nnc2c(Nc3ccc(Cl)cc3)nc3nonc3n12 | inconclusive [inhibitor, single point] | 
49 | C[C@H]1COc2c(N3CCN(C)CC3)c(F)cc3c(=O)c(C(=O)O)cn1c23 |  | inactive: -2.36%
50 | Cc1ccc(CNC(=O)CN2C(=O)c3ccccc3S2(=O)=O)cc1 |  | inactive: 3.85%
51 | Cc1sc2ncn(CC(=O)NCCN(C)C)c(=O)c2c1S(=O)(=O)N1CCC(C)CC1 | inconclusive [activator, full curve, poor fit] | 
